Laboratory results reported in PubChem BioAssay AID1346428 (National Center for Advancing Translational Sciences (NCATS), 2018).
Values joined by “and” are separate entries in the source; they are usually repeats but may differ in a detail not shown here. Identical values can stand only once. Out of some 48,000 compounds screened, about 1,200 (2.5%) were called active. About 2% were inconclusive and are not listed.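 The calls were made as follows: active = activation of at least 60% and not above a set upper limit (about 1 call in 100 departs from these limits); inconclusive = activation of 40% to 60%, or above that upper limit; inactive = activation under 40%.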 The list shows a part of the results.

Target: Probable G-protein coupled receptor 32 (Homo sapiens) (UniProt O75388)
Sequence of UniProt O75388 (O75388 whole entry, looked up): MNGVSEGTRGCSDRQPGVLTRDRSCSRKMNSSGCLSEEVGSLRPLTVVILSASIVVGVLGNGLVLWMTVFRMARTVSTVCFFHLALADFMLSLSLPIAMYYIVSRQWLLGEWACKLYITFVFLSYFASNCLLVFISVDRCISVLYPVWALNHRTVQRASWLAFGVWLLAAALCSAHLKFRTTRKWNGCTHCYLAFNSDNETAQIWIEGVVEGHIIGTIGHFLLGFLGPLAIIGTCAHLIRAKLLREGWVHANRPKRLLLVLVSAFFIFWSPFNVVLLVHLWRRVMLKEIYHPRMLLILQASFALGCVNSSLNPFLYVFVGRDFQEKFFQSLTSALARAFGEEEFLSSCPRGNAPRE
Assay: qHTS for Agonists of Human Resolvin D1 Receptor DRV1; also: 0% is about no effect
Conditions: CHO-K1 GPR32 beta-arrestin PathHunter luminescence, 90 min; at 76.9 µM; active compounds read high; zero percent set by DMSO-only wells
Summary of the method: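 Using DMSO wells as EC0, agonist-induced signal was taken as chemiluminescence from beta-Gal reconstituted upon beta-arrestin recruitment to GPR32 in CHO-K1 cells after 90 min compound treatment.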

How did the activation turn out when CCc1cccc(NC(=O)C(Cc2ccccc2)n2cccc2)c1 (stereo not drawn) was run?
The activation was inactive: 14.9%.

How did the activation turn out when CC(C)NC[C@H](O)c1ccc(O)c(O)c1 was run?
Its activation is inactive: 10.5% and inactive: -8.43%.

How did the activation turn out when CCOC(=O)c1ccc(-n2c(CCC(=O)O)ccc2-c2ccccc2)cc1 was run?
The activation was inactive: -30%.

How did the activation turn out when CC(=O)N1CCc2cc(Br)cc(S(=O)(=O)N3CCC(C(=O)Nc4ccc(C(C)C)cc4)CC3)c21 was run?
Its activation is inactive: 6.47%.

How did the activation turn out when Cc1ccccc1OCC(=O)NCC(c1ccc(Cl)cc1)N1CCCCC1 (stereo not drawn) was run?
Its activation is inactive: -28.3%.

For Cn1ncc2c(N3CCN(c4ccccc4F)CC3)ncnc21, which activation is on record?
Its activation is inactive: 26.4%.

COc1ccc(C)cc1NC(=O)Nc1cccc(OCc2cc(=O)n3ccc(C)cc3n2)c1 was tested. Which activation did it give?
Its activation is inactive: -8.8%.

For CCOc1ccc(/C=C/c2nc(C#N)c(NC(C)c3ccccc3)o2)cc1 (stereo not drawn), which activation is on record?
The activation was inactive: -17%.

How did the activation turn out when CCCCc1ccc(NC(=O)c2ccc3c(c2)CCN3S(=O)(=O)CC)cc1 was run?
Its activation is inactive: 39.5%.

COc1cccc(C(=O)N2c3ncnn3C3(CCCCC3)[C@@H]3CCCC[C@@H]32)c1 was tested. Which activation did it give?
Its activation is inactive: -15.4%.

Which activation does the source give for COc1ccc(N2CCN(S(=O)(=O)c3ccc(-c4ccno4)cc3OC)CC2)cc1 here?
Its activation is inactive: -1.94%.

With CCc1cccc(C)c1NC(=O)CN1C(=O)C2(SCC(=O)N2c2cccc(F)c2)c2ccccc21 (stereo not drawn) as the compound, how does the activation read?
Its activation is inactive: -5.47%.

CN(Cc1ccccc1)S(=O)(=O)c1ccc(NC(=O)c2cc(=O)c3ccccc3o2)cc1 was tested. Which activation did it give?
Its activation is inactive: 0.441%.

With Cc1ccccc1NC(=O)Cn1c(=O)n(CCc2ccccc2)c(=O)c2ccccc21 as the compound, how does the activation read?
Its activation is inactive: -32.7%.

How did the activation turn out when Cc1cccc(N2CCN(S(=O)(=O)c3cc(C(=O)Nc4ccc(Oc5ccccc5)cc4)ccc3F)CC2)c1C was run?
Its activation is inactive: -0.999%.

With O=c1oc2ccccc2c(N2CCN(c3ccc(F)cc3)CC2)c1CN1CCCC1 as the compound, how does the activation read?
Its activation is inactive: -17.6%.

O=C(Cn1ncc2c([nH]c3ccccc32)c1=O)NCCCN1CCN(c2ccccc2)CC1 was tested. Which activation did it give?
Its activation is inactive: -5.58%.

COc1ccc(OC)c(Nc2sc(C(=O)c3ccccc3)c(N)c2S(=O)(=O)c2ccccc2)c1 was tested. Which activation did it give?
The activation was inactive: -24.9%.

With COc1ccc(C(=O)COC(=O)c2cc(-c3cccs3)nc3ccccc23)cc1 as the compound, how does the activation read?
Its activation is inactive: -10.6%.

With CC(C(=O)Nc1ccc(OC(F)(F)F)cc1)N1Cc2ccccc2C1=O (stereo not drawn) as the compound, how does the activation read?
The activation was inactive: -7.17%.

How did the activation turn out when Cc1oc(-c2ccccc2F)nc1CN1CCC(C(=O)NCCc2ccccc2)CC1 was run?
Its activation is inactive: 7.9%.

Which activation does the source give for CCCCn1cc(S(=O)(=O)c2cc(C)ccc2C)c(=O)c2cc(F)c(F)cc21 here?
The activation was inactive: -9.24%.

How did the activation turn out when CCc1nn2c(=O)cc(COC(=O)c3ccccc3NC(=O)COc3ccc(C)c(C)c3)nc2s1 was run?
Its activation is inactive: -5.74%.

For COc1ccc(CNC(=O)C(C)n2nc(C)c3c(C)n(-c4ccccc4)nc3c2=O)c(OC)c1 (stereo not drawn), which activation is on record?
The activation was inactive: -2.74%.

For CCOC(=O)c1cccc(NC(=O)c2oc3c(c2C)-c2nn(CC)cc2CC3)c1, which activation is on record?
The activation was inactive: -5.28%.

How did the activation turn out when Cc1c(Cl)cccc1-n1ncc(C(=O)NC2CCCCC2)c1C1CCN(C(=O)OC(C)(C)C)CC1 was run?
Its activation is inactive: -30.8%.

For COc1ccc(Br)cc1[C@@H]1Nc2ccc(C(=O)O)cc2[C@@H]2C=CC[C@@H]21, which activation is on record?
Its activation is inactive: 16.8%.

How did the activation turn out when CCOc1ccc(CCNC(=O)CSc2nnnn2-c2ccccc2)cc1OCC was run?
Its activation is inactive: 3.92%.

With Cc1ccc(CNC(=O)Cc2csc3ccccc23)cc1 as the compound, how does the activation read?
The activation was active: 85.4%.

How did the activation turn out when COc1ccccc1CNC(=O)C(C)n1c(=O)cc(-c2ccccc2)c2c(C)nn(C)c21 (stereo not drawn) was run?
The activation was inactive: -3.69%.

With CCOC(=O)Cn1c(=O)oc2cc(S(=O)(=O)N3CCN(c4cccc(C)c4)C(C)C3)ccc21 (stereo not drawn) as the compound, how does the activation read?
Its activation is inactive: -15%.

CC(=O)Nc1ccc2nc3c(=O)n(C)c(=O)n(C)c3nc2c1C was tested. Which activation did it give?
Its activation is inactive: 4.89%.

With Cc1nc2cccnc2n1-c1cccc(C(=O)NCCN(C)C)c1 as the compound, how does the activation read?
The activation was inactive: 0.679%.

How did the activation turn out when COc1ccc(-c2cc(C(F)F)nn2-c2ccc(S(N)(=O)=O)cc2)cc1F was run?
Its activation is inactive: 1.57%.

With CC(C)c1nn2c(=O)cc(COC(=O)c3cccs3)nc2s1 as the compound, how does the activation read?
The activation was inactive: -23.2%.

Which activation does the source give for CCc1ccc(CNC(=O)c2cnc3sc(N4CCOCC4)nn3c2=O)cc1 here?
The activation was inactive: 4.68%.

N#Cc1nc(-c2ccc(COc3ccccc3)o2)oc1N1CCN(c2ccccc2)CC1 was tested. Which activation did it give?
The activation was inactive: 1.78%.

How did the activation turn out when O=C1CCSC2(C(=O)N(Cc3ccc(F)cc3)c3ccccc32)N1c1ccc(Cl)cc1 (stereo not drawn) was run?
The activation was inactive: -22.5%.

COc1ccc(Cl)cc1NC(=O)N1CCN(Cc2cc(=O)n3nc(-c4ccccc4)sc3n2)CC1 was tested. Which activation did it give?
Its activation is inactive: 9.76%.

For CCOC(=O)c1cnn(-c2ccc(C(=O)Nc3ccc(C(C)=O)cc3)cc2)c1N, which activation is on record?
The activation was inactive: -0.471%.

How did the activation turn out when CCCS(=O)(=O)Nc1cccc(-c2cn3ccc(C)cc3n2)c1 was run?
Its activation is inactive: 41.1%.

With CCOc1ccc2c(c1)c(=O)c(S(=O)(=O)c1ccc(F)cc1)cn2CC(=O)Nc1ccccc1C as the compound, how does the activation read?
The activation was inactive: 5.56%.

NC1=NC(c2cccc(Cl)c2)n2c(nc3ccccc32)N1 (stereo not drawn) was tested. Which activation did it give?
Its activation is inactive: 5.23%.

Which activation does the source give for COCCN(Cc1ccco1)C(=O)c1cc2c(=O)[nH]c3ccc(C)cc3c2s1 here?
Its activation is inactive: 3.68%.

How did the activation turn out when COc1cc2cc(CNc3ccccc3)c(=O)n(CC(=O)Nc3ccc(C)c(Cl)c3)c2cc1OC was run?
The activation was inactive: -14.3%.

How did the activation turn out when CCOC(=O)c1c(S(=O)(=O)N2CCCC(C(=O)NCc3cccc(C)c3)C2)c(C)n(C)c1C (stereo not drawn) was run?
The activation was inactive: -2.03%.

With Cc1ccc(-c2noc(-c3ccc(N4CCN(C)CC4)c([N+](=O)[O-])c3)n2)cc1 as the compound, how does the activation read?
The activation was inactive: 12.2%.

O=C(COc1ccccc1)NCC(c1ccc(Cl)cc1)N1CCOCC1 (stereo not drawn) was tested. Which activation did it give?
Its activation is inactive: -3.14%.

With Cc1ccc(NC(=O)c2oc3ccc4c(c3c2C)C(=O)CC(C)(C)O4)c(C)c1 as the compound, how does the activation read?
The activation was inactive: -12.6%.

Which activation does the source give for COc1ccc(C)cc1NS(=O)(=O)c1c(C(=O)N2CCC(C)CC2)c(C)n(C)c1C here?
The activation was inactive: -24.8%.

For COC(=O)c1ccc(NC(=O)CCCC(=O)OCC(=O)c2ccc(Cl)cc2)cc1, which activation is on record?
The activation was inactive: 6.98%.

O=C(CSc1n[nH]c(-c2ccc(F)cc2)n1)NCc1ccccc1Cl was tested. Which activation did it give?
Its activation is inactive: -12.4%.

How did the activation turn out when COc1ccc(C2C=C(c3ccc(Cl)cc3)Nc3nc(-c4ccc(Cl)cc4)nn32)cc1 (stereo not drawn) was run?
The activation was inactive: 10.2%.
